# The supplement of paper PMC3334620
# In all, about 33,000 sequences were measured (“E-score (-0.5 to 0.5)”: median about -0.043, highest 2% from about 0.37 on). The list shows a part of the results.
# Biological target: T1, Upc2 (UniProt Q12151)
# T1 sequence: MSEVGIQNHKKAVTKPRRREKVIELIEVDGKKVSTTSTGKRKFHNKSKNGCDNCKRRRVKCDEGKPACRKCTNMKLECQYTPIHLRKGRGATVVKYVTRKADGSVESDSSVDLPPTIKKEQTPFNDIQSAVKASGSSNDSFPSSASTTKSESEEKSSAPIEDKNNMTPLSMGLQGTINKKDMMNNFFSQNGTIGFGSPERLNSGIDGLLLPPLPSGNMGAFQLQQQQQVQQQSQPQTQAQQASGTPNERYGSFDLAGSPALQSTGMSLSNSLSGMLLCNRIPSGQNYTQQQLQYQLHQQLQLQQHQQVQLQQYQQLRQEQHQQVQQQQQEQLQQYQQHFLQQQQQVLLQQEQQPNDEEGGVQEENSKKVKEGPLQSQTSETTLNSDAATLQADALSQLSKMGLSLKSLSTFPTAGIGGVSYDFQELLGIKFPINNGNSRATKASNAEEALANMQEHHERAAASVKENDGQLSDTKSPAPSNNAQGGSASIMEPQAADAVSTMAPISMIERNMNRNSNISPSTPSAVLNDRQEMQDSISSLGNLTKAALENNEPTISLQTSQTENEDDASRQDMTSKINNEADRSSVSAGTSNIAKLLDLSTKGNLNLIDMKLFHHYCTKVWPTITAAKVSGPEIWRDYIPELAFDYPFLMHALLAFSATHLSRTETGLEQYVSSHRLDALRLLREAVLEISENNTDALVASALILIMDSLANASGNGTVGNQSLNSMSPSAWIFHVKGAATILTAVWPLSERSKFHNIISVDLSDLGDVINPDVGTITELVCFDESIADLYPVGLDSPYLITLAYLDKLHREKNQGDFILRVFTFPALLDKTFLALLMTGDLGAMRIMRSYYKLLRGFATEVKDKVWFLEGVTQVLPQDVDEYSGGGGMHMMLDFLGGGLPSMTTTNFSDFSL
# Assay: PBM E-score (8-mer binding enrichment) (E-score (-0.5 to 0.5)); higher = stronger / more preferred TF binding; most listed sequences are background and not binding sites
# Conditions: protein concentration: 200 nM; construct: GST-full length
# Summary of the method: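 GST-tagged yeast TFs (full-length or DNA-binding domain) were made by PURExpress in vitro transcription/translation and applied at about 100-200 nM to universal all-10-mer Agilent arrays. The arrays were made double-stranded by primer extension, on fresh or once-stripped slides. Bound protein was detected with fluorescent anti-GST, and scans were normalised with masliner. Each ungapped eight-base word, pooled with its reverse complement, received an E-score (modified Wilcoxon-Mann-Whitney statistic) from the Universal PBM Analysis Suite.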
row,Sequence,PBM E-score
1,GGAGTACA,-0.103
2,CAAAAGCG,-0.13
3,GGAATTCA,-0.0796
4,ACAAAACT,-0.0618
5,CGTCGTAC,0.474
6,ACTGGAGC,-0.244
7,GGCACGAA,-0.163
8,CAGATCTG,-0.248
9,AATTAAGT,-0.0624
10,CGACAAAC,0.172
11,AATTCAGA,-0.0136
12,AGGGCTCC,-0.277
13,GGGACATA,-0.135
14,CCTTGTCG,-0.0495
15,ATCTCATG,-0.133
16,AATGGAAC,0.132
17,AAGAATAG,0.0807
18,ACCAGAGC,-0.137
19,AACTCAAG,-0.153
20,AGTTGGTA,0.0112
21,ACTTGGCG,-0.0651
22,GCGACCCC,-0.0914
23,CGAAAGCG,0.185
24,ACTTGGAA,-0.0616
25,ATCTGGCA,0.034

row,Sequence,PBM E-score
1,CCAGACGA,0.177
2,ACGGCAAG,0.00345
3,AATGCCAC,-0.133
4,AAGGAGCT,-0.0416
5,CTACATGC,0.074
6,ACATCGGC,0.0449
7,GCATTCAC,-0.0368
8,ACAATAGT,-0.184
9,AAGAATAA,0.00879
10,AACAGACG,0.122
11,AAACTTCG,0.122
12,GCAAAGAC,-0.148
13,CCTGAGAG,-0.284
14,AAGCCACC,-0.207
15,ACCCGTTC,0.293
16,AATTGGCT,-0.129
17,CGTTTAAC,0.473
18,ACTAAACT,-0.0201
19,CGAGCTAG,0.108
20,ATGACAAA,-0.0651
21,ATCTAACC,0.0817
22,AGAGGACA,-0.245
23,CGAAGGCG,0.0587
24,GTGTCATA,0.0297
25,ATCGCGAC,0.11

row,Sequence,PBM E-score
1,AGTTCGCA,0.136
2,AACCGCAT,0.0802
3,CCCAACGG,-0.233
4,AAAATTGA,-0.0491
5,AGTTTGCC,-0.228
6,CCCTACCA,-0.0947
7,CTACTGTA,0.122
8,TGGTCTAA,-0.0914
9,GACAGGCC,-0.19
10,GCGGCAGA,-0.18
11,CGAAAGGC,0.0523
12,GATTGTGA,-0.112
13,GACAGCTC,-0.00274
14,GTTGAGCA,-0.0532
15,GAAAGGAC,0.0926
16,CGAAGCGC,0.0394
17,TACTCTCA,-0.0653
18,CCGAGCCC,-0.0448
19,CGCCGGTC,-0.00408
20,ATAGTTAA,0.0708
21,AGCTACCG,-0.269
22,AGTGTACG,0.417
23,ATCCAATA,-0.114
24,TAAGCGGA,0.157
25,CGTTAGCC,-0.0748

row,Sequence,PBM E-score
1,CAGAACTA,-0.109
2,CCCAACCC,-0.082
3,ACGCCACT,-0.0432
4,GATAATTA,0.00873
5,CACTGACG,-0.152
6,CGCTCAAA,0.0912
7,CCGTTCTC,-0.0145
8,AAATAGGA,-0.12
9,AGAGGGTA,-0.102
10,AACTGCTG,-0.235
11,CGCAGCCG,-0.133
12,CAGTTTGA,-0.0353
13,GCCGCTCC,-0.0957
14,ACACCTGT,-0.0936
15,CGCTGCAA,0.0554
16,AAGGCGCT,-0.119
17,GTCACAAA,0.106
18,AATTCTCT,-0.018
19,CCCCGGAG,-0.119
20,GTCTGCCA,0.0242
21,ACGAAACA,0.339
22,ACTGGCCA,-0.215
23,GTCTCCGA,-0.143
24,AAATTAAA,0.00919
25,AATCTGCC,-0.133

row,Sequence,PBM E-score
1,GCATCAGA,-0.062
2,GTACCCTA,0.109
3,AACGTCTT,0.131
4,CGCTGACG,-0.0837
5,TATGTGCA,-0.0906
6,TATAAACA,0.0845
7,AGACGCAC,0.0365
8,CCTCGCCA,-0.158
9,GGCGGCTA,-0.263
10,AGATCCTA,-0.104
11,ACCCACGC,-0.061
12,CACCTTGA,-0.135
13,TTCGAGAA,0.109
14,CCACGTGG,0.13
15,AACACGGG,0.12
16,GGGTCATA,-0.127
17,ACAAATCC,-0.0208
18,CCGTAAGC,0.161
19,GTGGTCGA,0.00299
20,ATAGACTA,-0.0191
21,CCCACTAC,-0.0157
22,CATCTACA,-0.109
23,AAGCAAGT,-0.192
24,ATCCAAGC,-0.232
25,GACTGGCC,0.0218

row,Sequence,PBM E-score
1,CCACGTGC,-0.0054
2,GCATCAAA,-0.107
3,AAGACTAC,-0.033
4,TAACGGCA,0.034
5,AACCTGCG,-0.0137
6,ACTCTTAA,0.033
7,ACTCATGC,-0.0732
8,ACACTCAC,-0.0895
9,CCGAGTCG,0.0842
10,AAGTGGTG,-0.0138
11,CAGCCAAA,-0.0153
12,CGCTTTCC,-0.089
13,CGTTTAGC,0.48
14,AAATTGAG,-0.17
15,ATTAGCGG,-0.156
16,CATAAACA,-0.00956
17,ACAGGTCT,0.0427
18,GTGGAAAC,-0.106
19,GAGTACAC,0.134
20,CTAGGTTA,-0.111
21,AATGCACA,0.039
22,AGCTAATA,0.0852
23,CATCGGAA,0.0847
24,AACCCTTG,-0.0385
25,ATCAGGCG,-0.135

row,Sequence,PBM E-score
1,ATAACCGC,-0.0475
2,CTTTAGTC,-0.278
3,ATGCCGCG,0.178
4,GAGGTAGA,-0.0305
5,CGAATGCC,-0.0362
6,CCTCATCG,0.0474
7,ATCGAGGG,-0.0211
8,ACTACTGG,-0.349
9,CTGTCAGC,-0.268
10,CGCAACCC,-0.0865
11,CTAGACTA,-0.0801
12,CTTAAACA,0.11
13,CTAGGGGC,-0.369
14,GCCAGTAC,0.00188
15,GACTGGAC,-0.215
16,ATGACCAC,-0.197
17,GATTCAAC,-0.0403
18,GTGCGGAA,-0.0536
19,GGACCATA,-0.0389
20,AATTCCGC,0.0411
21,AAAAGCAT,0.0838
22,ACGCATTC,0.0368
